Data taken from publication PMC7819943, “Rice protein-binding microarrays: a tool to detect cis-acting elements near promoter regions in rice”.
This is one part of the list.

target: T1, OsWOX13 (Oryza sativa, UniProt Q5QMM3 1-267); assay: protein-binding microarray (RPBM); PBS, 2% BSA, 51.3 ng/ul salmon testes DNA, 50 uM zinc acetate, 200 nM TF, 25 C, 1 h; high values mean tight binding; settings: protein: recombinant; tags: N-terminal polyhistidine and DsRed monomer fusion (pET32a); label: CyDye5-dUTP incorporated in the synthesized complementary strand; 3' TTTTT single-stranded linker to array surface; dsDNA, one strand shown
T1 sequence: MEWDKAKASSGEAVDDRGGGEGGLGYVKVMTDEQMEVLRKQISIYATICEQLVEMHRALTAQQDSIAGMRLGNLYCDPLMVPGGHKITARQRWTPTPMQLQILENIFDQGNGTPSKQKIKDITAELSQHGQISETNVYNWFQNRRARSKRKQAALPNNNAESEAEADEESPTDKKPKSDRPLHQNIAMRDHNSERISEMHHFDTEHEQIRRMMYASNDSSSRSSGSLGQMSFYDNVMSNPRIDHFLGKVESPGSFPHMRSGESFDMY
Method in brief: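 Polyhistidine-tagged DsRed fusions of transcription factors, joined at the N-terminus, were expressed in E. coli BL21-CodonPlus and isolated on Ni–NTA. They were incubated at 200 nM for 1 h at 25 °C on a custom Agilent array, double-stranded and BSA-blocked, in PBS with 2% BSA, salmon testes DNA and 50 µM zinc acetate. The binding signal is per-feature fluorescence intensity (arbitrary units) read on an Axon 4000B scanner after washing.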

Sequence	binding signal
TCAAATTAGCCACGTATGCGCCACATCAACCAATACCGCCCGGAGTCACCTAGTGCAG	3340 fluorescence intensity (a.u.)
ATGTTGAGTCTCCTATTGATTGGAATCAGACTTGAGAAGGCGGAGTCACCTAGTGCAG	29800 fluorescence intensity (a.u.)
GTTTATTTATAATTATATTATATTAATATTGTTTGAAAATCGGAGTCACCTAGTGCAG	8200 fluorescence intensity (a.u.)
TACCGTCTTAAATTTGACTTGATCTAATCCATGGCCAGATCGGAGTCACCTAGTGCAG	3440 fluorescence intensity (a.u.)
CAAGATTTTAATAAATGCATAATTTTATGAATCGCATAGACGGAGTCACCTAGTGCAG	7290 fluorescence intensity (a.u.)
CCCCTTTGTGATTTGATGAGGCGCTGTGATATCGGGGTGGCGGAGTCACCTAGTGCAG	22300 fluorescence intensity (a.u.)
ACAAATTAGTATTTACATAAAGAAATTCCTGCGTCTGCGTCGGAGTCACCTAGTGCAG	29000 fluorescence intensity (a.u.)
ATATATATATATATATATTTGTACTATGTATGGAATTTTCCGGAGTCACCTAGTGCAG	3390 fluorescence intensity (a.u.)
GCTAATTCATACAATAATTGTTTACTATACTATTAATATACGGAGTCACCTAGTGCAG	13400 fluorescence intensity (a.u.)
GGTAATTAAATATGCTGGATGTGTAGTTCGGTTCAAGTAGCGGAGTCACCTAGTGCAG	24700 fluorescence intensity (a.u.)
AGCTCTCTGCCAATCAAGCTACACACCTTGTTCCCCTACTCGGAGTCACCTAGTGCAG	7180 fluorescence intensity (a.u.)
GGTTGGATGGTTGGATTTGATGTGGATTTGAATTGTTATGCGGAGTCACCTAGTGCAG	7890 fluorescence intensity (a.u.)
CTTCTTATATTATTTTAATTAGAAGTTTTACTGTTAATGTCGGAGTCACCTAGTGCAG	3320 fluorescence intensity (a.u.)
AAAACAGTAAATCAATGTTATATTATAAAGTACTATAATACGGAGTCACCTAGTGCAG	3150 fluorescence intensity (a.u.)
GACAGTGACATGCTCTAATTATATTTGAAGCTGGACCTCACGGAGTCACCTAGTGCAG	8100 fluorescence intensity (a.u.)
ACAGTAATTATTTTCATCTTAGACTACTTAATATAAGTTTCGGAGTCACCTAGTGCAG	13000 fluorescence intensity (a.u.)
TCTAATTACTTCATGATTTGATAATTTGGTGTTACAGTAACGGAGTCACCTAGTGCAG	52400 fluorescence intensity (a.u.)
CCGGACTAAATTAAGACAAACTGAGACTGAAAAGAACTCACGGAGTCACCTAGTGCAG	7570 fluorescence intensity (a.u.)
ATAATGGAACAGAGAATTATTTACTTTACAAATTTCTCGTCGGAGTCACCTAGTGCAG	4830 fluorescence intensity (a.u.)
TTGGTGACAGATTCCATCTGCCAACATACATATATATTGGCGGAGTCACCTAGTGCAG	8100 fluorescence intensity (a.u.)
TTGCATTTAATTAATCAAATGAAACGAGAACATTGTGTTTCGGAGTCACCTAGTGCAG	30500 fluorescence intensity (a.u.)

Sequence	binding signal
ATACATGACGGCAATTGAATGACACTTGTTGAATTTTCAGCGGAGTCACCTAGTGCAG	5650 fluorescence intensity (a.u.)
GTATACAAATTTATAATCAATGTTGGGTGGAAAATAAATTCGGAGTCACCTAGTGCAG	15600 fluorescence intensity (a.u.)
TAACTTTCTCTGTCAATCTAGCTTAACAATTGTCAGAAAACGGAGTCACCTAGTGCAG	9960 fluorescence intensity (a.u.)
GCAATAGATTGGATAAATAAATGTAATCCAGATAAAATATCGGAGTCACCTAGTGCAG	27100 fluorescence intensity (a.u.)
TATCAATCTGATCCGATTTGCTACTGTAAGAGAAGACTTGCGGAGTCACCTAGTGCAG	3330 fluorescence intensity (a.u.)
CAAGTTCTTGTCAAAATAGACAGAATTATGGGATTTGAGCCGGAGTCACCTAGTGCAG	9060 fluorescence intensity (a.u.)
CCTTAATTTAGTCTAAGGTTCTGGATTTTAATAGAGTATACGGAGTCACCTAGTGCAG	6920 fluorescence intensity (a.u.)
TCTTTGATAGACAGAGCTCTTCCTTTGATTCAGCTCAAGGCGGAGTCACCTAGTGCAG	39000 fluorescence intensity (a.u.)
ATTATAATTGAGTACATTCTAGTATAATAATAATGAAATTCGGAGTCACCTAGTGCAG	15200 fluorescence intensity (a.u.)
CTAATTGAACGGTCAATTCTTACCCATTCATGGTTCGATTCGGAGTCACCTAGTGCAG	24100 fluorescence intensity (a.u.)
CTAAAATATAATTATGCAAACCTACCTTGGCAATTGAATTCGGAGTCACCTAGTGCAG	4390 fluorescence intensity (a.u.)
AATATTAGATTGGCTATAGATGAATTGTAGCTAGTAGTTGCGGAGTCACCTAGTGCAG	54100 fluorescence intensity (a.u.)
GATTCCTGAAAATGATTGGATTGCAAATTTAGTACGGTCACGGAGTCACCTAGTGCAG	23200 fluorescence intensity (a.u.)
GCATAAATTACCTCGCGGGCACGGGCATGGGTAGTCACTACGGAGTCACCTAGTGCAG	4000 fluorescence intensity (a.u.)
CCTGATCGGATTTGGTTGGCTGGTGCTCTAGATGATGTACCGGAGTCACCTAGTGCAG	3340 fluorescence intensity (a.u.)
CATGATATCCAATCTCATGAAAAGTTTTATTTGAGTCTTTCGGAGTCACCTAGTGCAG	4810 fluorescence intensity (a.u.)
TATTTTGTAATCATTTGTTTTATATTTGAATTCCTGTCAGCGGAGTCACCTAGTGCAG	3710 fluorescence intensity (a.u.)
AATATCCTGTGATTTGATGGTATTAAGTGAACGATTTATTCGGAGTCACCTAGTGCAG	7640 fluorescence intensity (a.u.)
CCCAATTGGTCCTTTGACCGCCGAACCCCATGGTGTCCCCCGGAGTCACCTAGTGCAG	4060 fluorescence intensity (a.u.)
AGTTCCCAAGTCAATCAAATTGAGGGTAAAAGAAATTAAGCGGAGTCACCTAGTGCAG	8860 fluorescence intensity (a.u.)
AGCCATGCATCAACACGTAATTAAGTACTAGTTGACAGTGCGGAGTCACCTAGTGCAG	4190 fluorescence intensity (a.u.)

Sequence	binding signal
GTGAGTGATTGTGTGCTTGTGTACTTGTTTGTTTGTAGTGCGGAGTCACCTAGTGCAG	35000 fluorescence intensity (a.u.)
TTTAATATCAGTGACTGATGAAAAGTGGACAATTAAGCGTCGGAGTCACCTAGTGCAG	9430 fluorescence intensity (a.u.)
GTAATTGAACTACTAAGCTAGTCTGATATAATCGTCAACACGGAGTCACCTAGTGCAG	11800 fluorescence intensity (a.u.)
GGTTAATTTGGAGCGTCACGGGCTAGTTCCGGTCGGGACTCGGAGTCACCTAGTGCAG	16800 fluorescence intensity (a.u.)
CCTGAAAATAACTAGATTGAGATGGCTAAAATGACACATGCGGAGTCACCTAGTGCAG	20200 fluorescence intensity (a.u.)
AACTAATTGTATAGATCGCGACTAATTTGCGAGACGAATCCGGAGTCACCTAGTGCAG	26100 fluorescence intensity (a.u.)
GCTAGCTAATTATATAGATAGATTAAAAGAATCTTATAATCGGAGTCACCTAGTGCAG	15700 fluorescence intensity (a.u.)
GTAATTGGTAGAAGCAGGAGCTGTAGATCACTGACAGGTTCGGAGTCACCTAGTGCAG	9860 fluorescence intensity (a.u.)
GAGTTATGATTTGTTACAATAATTGTAACTTATTGTAAAGCGGAGTCACCTAGTGCAG	27900 fluorescence intensity (a.u.)
GCCTAAATTATTGATATTCATATTTTACTATCGCCTATACCGGAGTCACCTAGTGCAG	32800 fluorescence intensity (a.u.)
ATTCCTATCATAAAAGTAATCATGTAAATTCCCCTTGTATCGGAGTCACCTAGTGCAG	4440 fluorescence intensity (a.u.)
AACGTGCGAATCAACTGTCAATTAATTCTGACATGAACCTCGGAGTCACCTAGTGCAG	21300 fluorescence intensity (a.u.)
TGAACTTTTGTCAATTAATGCCAATATTAGCACACGTGGTCGGAGTCACCTAGTGCAG	13800 fluorescence intensity (a.u.)
TTAATTGCTCTTTAAGAAGAGTATAGATAAATACGAGAGGCGGAGTCACCTAGTGCAG	7660 fluorescence intensity (a.u.)
TTTGTCGATTGAATGATAGTTACTCCCTTAGTTATTTTGGCGGAGTCACCTAGTGCAG	15100 fluorescence intensity (a.u.)
ACTCTAATTTAAATTAAGTTTAAGCTAATACAGACGTCTACGGAGTCACCTAGTGCAG	35600 fluorescence intensity (a.u.)
CTAAACTAAACACAAAACACAGCTTTTGTACCATCGGGGCCGGAGTCACCTAGTGCAG	6170 fluorescence intensity (a.u.)
GTGATGACAGCTAACTATTACAGATCACAACTAGGACCACCGGAGTCACCTAGTGCAG	14100 fluorescence intensity (a.u.)
AATACAATTAATTACAGTTAATTAAATGATAGAAAGAGTTCGGAGTCACCTAGTGCAG	55400 fluorescence intensity (a.u.)
CTATCGATTATAATTAGTCAGAAGTGAAGTGTTAAACCAACGGAGTCACCTAGTGCAG	5520 fluorescence intensity (a.u.)
CTATCCTTAATTATGAATGGTTAATTTGGAAGTGCACCTACGGAGTCACCTAGTGCAG	30300 fluorescence intensity (a.u.)

Sequence	binding signal
AGCTACTCAATCCAATCTAATCTCGAAACAATTTCGATAACGGAGTCACCTAGTGCAG	9160 fluorescence intensity (a.u.)
TGGAGATTGGAGTGCGGCCTAGTTCATCTTGGTATCTTATCGGAGTCACCTAGTGCAG	9490 fluorescence intensity (a.u.)
AATAACTAATTGCACATATTGCAACTACTTTGCGAGACGACGGAGTCACCTAGTGCAG	18000 fluorescence intensity (a.u.)
GCAGGACTGTTTAGCTAATTAGGTTGCGCCATTTGATACACGGAGTCACCTAGTGCAG	8970 fluorescence intensity (a.u.)
ACAAAATTTGTATATACATATATAGAAACTTTGTATATGTCGGAGTCACCTAGTGCAG	9330 fluorescence intensity (a.u.)
AGAAATTGAGGAGCTCACTCTCCACTCCAGTCCAAAAGGGCGGAGTCACCTAGTGCAG	4270 fluorescence intensity (a.u.)
CACCATTAATTATTTTGACATACTCTTATATCAAAATAGACGGAGTCACCTAGTGCAG	16100 fluorescence intensity (a.u.)
TTAACAAAATTTTGGGTGTAATTTCAAAATTTTAGGACTTCGGAGTCACCTAGTGCAG	10800 fluorescence intensity (a.u.)
TATACTATTAAACTTGCTCTAATTGTTTTATGCCAGAGCCCGGAGTCACCTAGTGCAG	4210 fluorescence intensity (a.u.)
TACAATTCACCTAATTGGAAATATGCCATTACAATTCTGCCGGAGTCACCTAGTGCAG	12000 fluorescence intensity (a.u.)
GCGTGACTGATCAACGAACCAATCACATTCGTTCTTCTCCCGGAGTCACCTAGTGCAG	24500 fluorescence intensity (a.u.)
CCTTGACAGGTAATAGCCCTAATCCAGTTGATATGGGATTCGGAGTCACCTAGTGCAG	30300 fluorescence intensity (a.u.)
CAAATTGAATTTTACTGTTAGAATCCAAGGAAATGATCGTCGGAGTCACCTAGTGCAG	24400 fluorescence intensity (a.u.)
CCAAATTGTTGTTGCCACATCCTTGATCGTATGCTTCTTACGGAGTCACCTAGTGCAG	7590 fluorescence intensity (a.u.)
CTTTGTAATTGGAGTCAATCAAATTGAATGATTTCCCTTTCGGAGTCACCTAGTGCAG	58900 fluorescence intensity (a.u.)
CCCAAACTACACATAATTAGAAATCACCCTCCAAATCACCCGGAGTCACCTAGTGCAG	16400 fluorescence intensity (a.u.)
AATAATAATTTTGATTTGTTTGCAAGTACTACCAGCTAGCCGGAGTCACCTAGTGCAG	40100 fluorescence intensity (a.u.)
AAACATTAATTTGTTTTATAATATATTATAAATGACTATACGGAGTCACCTAGTGCAG	15500 fluorescence intensity (a.u.)
GAAATGATTCTGATAAATGGGGAGGTTGGAATGATGCAGCCGGAGTCACCTAGTGCAG	4230 fluorescence intensity (a.u.)
AATTATGCAACTTTAAATTTGCTATCACCCCAAGTACATCCGGAGTCACCTAGTGCAG	3410 fluorescence intensity (a.u.)
CACTGATTTTAGGAGTTGAGGGACGCGTCATACAGTCATACGGAGTCACCTAGTGCAG	4870 fluorescence intensity (a.u.)
